# According to PubChem BioAssay AID485294 (National Center for Advancing Translational Sciences (NCATS), 2010):
# Screen size: about 370,000 compounds; about 150 (0.041%) were called active. Inconclusive means that the source gave no clear call. Such entries were picked first, then a sample of the others. Calls come from the whole dose curve; as a rule, active = well fitted inhibition curve with a large enough effect; inconclusive = small, poorly fitted or top-dose-only effect; inactive = flat fitted curve, though single readings scatter. No potency is given beside an inconclusive call; the fits are too rough.
# Target: Beta-lactamase (Escherichia coli (strain K12)) (UniProt P00811)
# Chain of UniProt P00811 (P00811 whole entry, looked up): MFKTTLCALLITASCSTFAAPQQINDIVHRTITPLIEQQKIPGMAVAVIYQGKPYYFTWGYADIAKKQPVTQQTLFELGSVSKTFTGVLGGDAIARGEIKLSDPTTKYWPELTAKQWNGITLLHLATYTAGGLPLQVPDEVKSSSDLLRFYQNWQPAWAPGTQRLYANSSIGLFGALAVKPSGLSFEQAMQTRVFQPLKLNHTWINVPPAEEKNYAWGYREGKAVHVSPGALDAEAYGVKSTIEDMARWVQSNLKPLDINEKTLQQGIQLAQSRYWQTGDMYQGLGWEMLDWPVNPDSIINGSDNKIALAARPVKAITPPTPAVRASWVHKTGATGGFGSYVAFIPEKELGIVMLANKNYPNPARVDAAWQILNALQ
# Assay: qHTS Inhibitors of AmpC Beta-Lactamase (assay with detergent); note: nearly all actives have a fitted effect of over 25% in size
# Details: AmpC hydrolysis of nitrocefin, absorbance 480 nm, 0.01% Triton; series mostly up to 114 µM
# In short: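 20 mM phosphate pH 7.0 + 0.01% (detergent screen) or 0.0001% Triton X-100; 5.3 nM AmpC reagent; cpd preinc 15 min RT; nitrocefin (800 uM stock) to start; A480 q20 s × 4 min; Activity was normalised to no-enzyme and no-compound control wells.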
# Potency is the fitted concentration of half-maximal effect; tags give direction and shape of the fitted curve.
row,Structure (SMILES),Potency
1,Oc1ccccc1N1CCN(CC(O)COC2CCCc3ccccc32)CC1 (configuration not stated),inactive
2,CCCC(=O)Nc1ccc(NC(=O)c2ccccc2)nc1,"inconclusive [inhibitor, full curve]"
3,COC(=O)c1ccccc1NC(=O)CCCn1nc(C)c2c(C)n(-c3ccccc3)nc2c1=O,inactive
4,COc1ccccc1CCNC(=O)Cn1ccc2cc(S(=O)(=O)N3CCC(C)CC3)ccc21,inactive
5,O=C(N/N=C/c1ccco1)c1cnccn1,inactive
6,O=[N+]([O-])c1ccccc1SN(Cc1ccccc1)c1ccccn1,"inconclusive [inhibitor, full curve]"
7,CCCN(CCO)Cc1cccc(Oc2ccccc2)c1,"inconclusive [inhibitor, full curve, poor fit]"
8,COc1cc(OC)cc(-n2c(=O)c3sccc3n(Cc3ccc(F)cc3)c2=O)c1,inactive
9,CCCN(CCC)c1c([N+](=O)[O-])c(=O)oc2ccccc12,"inconclusive [inhibitor, single point]"
10,O=C(NCc1ccccc1)c1c(O)c2cccc3c2n(c1=O)CCC3,"inconclusive [inhibitor, single point]"
11,CCN(Cc1ccccc1)C(=O)CSc1nc(C)cc(C)c1C#N,"inconclusive [inhibitor, single point]"
12,Cc1cc(C)c(C(=O)CSc2n[nH]c(-c3ccncc3)n2)c(C)c1,inactive
13,O=C(COc1ccc(Cl)cc1Cl)Nc1ccc(C(=O)Nc2ccccc2C(=O)O)cc1,"inconclusive [inhibitor, partial curve, poor fit]"
14,COc1ccccc1C1CC(=O)Nc2c1c(=O)n(C)c(=O)n2C (configuration not stated),"inconclusive [inhibitor, full curve, poor fit]"
15,O=C(Nc1nnc(-c2ccncc2)o1)C1CCCCC1,"inconclusive [inhibitor, full curve]"
16,CC(=O)N1CCN(CCN(CC2C(C)C=C(C)CC2C)C(C)=O)CC1 (configuration not stated),"inconclusive [inhibitor, full curve, poor fit]"
17,CCCCOC(=O)NC(NCC(O)c1ccccc1)(C(F)(F)F)C(F)(F)F (configuration not stated),"inconclusive [inhibitor, partial curve, poor fit]"
18,CCOc1ccc(NC(=O)CSc2nnnn2C2CCCC2)cc1,"inconclusive [inhibitor, partial curve]"
19,Cc1c(C=O)c2cc(OCc3ccccc3)ccc2n1C,"inconclusive [inhibitor, partial curve]"
20,Cc1ccc(F)cc1NC(=O)CSc1nc(-c2cccs2)cc(C(F)(F)F)n1,inactive
21,O=C(C1=C(O)C(=O)N(CCN2CCOCC2)C1c1ccncc1)c1ccco1 (configuration not stated),"inconclusive [inhibitor, partial curve, poor fit]"

row,Structure (SMILES),Potency
1,Cc1ccc(NCc2nnc(SCC(=O)Nc3ccccc3)n2CC2CCCO2)c(C)c1 (configuration not stated),"inconclusive [inhibitor, single point]"
2,O=C(CN1C(=O)/C(=C/c2ccccc2F)Sc2ccccc21)NCCCN1CCOCC1,"inconclusive [inhibitor, full curve, poor fit]"
3,Cc1cccc2c1Sc1ccccc1CC2=O,"inconclusive [inhibitor, partial curve, poor fit]"
4,c1ccc(CCc2nc(-c3ccncc3)no2)cc1,"inconclusive [inhibitor, single point]"
5,COc1ccc(C(=O)N/C(=C\c2cn(S(=O)(=O)N(C)C)c3ccccc23)C(=O)NCCN2CCOCC2)cc1OC,"inconclusive [inhibitor, full curve, poor fit]"
6,CC(C)c1ccc(NC(=O)CCNS(=O)(=O)c2cc(Br)cnc2N)cc1,"inconclusive [inhibitor, partial curve, poor fit]"
7,O=C1CCc2cc(S(=O)(=O)NC(Cc3ccccc3)C(=O)NCCC3=CCCCC3)ccc2N1 (configuration not stated),"inconclusive [inhibitor, full curve, poor fit]"
8,Cn1c(SCC(=O)NC2CCCCC2)nnc1-c1ccncc1,"inconclusive [inhibitor, partial curve, poor fit]"
9,Cc1ccc(NS(=O)(=O)c2cc(C(=O)NCc3cccnc3)ccc2C)cc1,inactive
10,COc1cc2ncnc(NCc3ccccc3F)c2cc1OC,"inconclusive [inhibitor, partial curve]"
11,COc1ccc(N2C(=O)C3CCCN3C2c2cccc(C)c2)cc1 (configuration not stated),"inconclusive [inhibitor, partial curve, poor fit]"
12,CC1CCN(CCCNC(=O)c2cc3c(=O)n(C)c4ccccc4c3n2C)CC1,"inconclusive [inhibitor, full curve]"
13,N/C(Cc1ccc(Cl)cc1)=N\OC(=O)c1ccccc1,"inconclusive [inhibitor, full curve, poor fit]"
14,COC(=O)c1cnc(N2CCN(c3ccc(OC)cc3)CC2)c2ccccc12,inactive
15,CCN(CC)c1ccc(C(=O)N/N=C/c2ccccc2OC(F)F)cc1,inactive
16,Cc1ccccc1NS(=O)(=O)c1ccc2[nH]cc(C(=O)NCCc3ccccc3)c(=O)c2c1,"inconclusive [inhibitor, full curve, poor fit]"
17,Cc1cc(C)n(-c2nc3ccccc3nc2Nc2ccc3[nH]c(=O)[nH]c3c2)n1,inactive
18,COCCN1C(=O)/C(=C2/C(=O)N(CC(=O)Nc3ccccc3Cl)c3ccccc32)SC1=S,"inconclusive [inhibitor, full curve, poor fit]"
19,CCOC(=O)c1[nH]c2c(c1C)C(=O)CC(c1ccc(N(C)C)cc1)C2 (configuration not stated),"inconclusive [inhibitor, partial curve, poor fit]"
20,COc1ccc(C)cc1-n1c(N)c(C#N)c(C#N)c1-c1ccc(OC)c(OC)c1OC,"inconclusive [inhibitor, single point]"
21,CCn1nc(C(=O)Nc2ccc3nc(C)sc3c2)c2ccccc2c1=O,"inconclusive [inhibitor, full curve, poor fit]"
